Each structure is given as a SMILES string. The campaign covered roughly 310,000 compounds. About 2,200 (0.71%) showed an effect of 50% or more. Effects have a minus sign here. The list shows a part of the results.

The target in this assay is human ether-à-go-go-related gene (hERG) potassium channel (human, UniProt Q12809). The assay can be described thus: primary screen, population patch clamp on CHO cells stably expressing hERG.
Chain of human ether-à-go-go-related gene (hERG) potassium channel (Q12809 whole entry, looked up): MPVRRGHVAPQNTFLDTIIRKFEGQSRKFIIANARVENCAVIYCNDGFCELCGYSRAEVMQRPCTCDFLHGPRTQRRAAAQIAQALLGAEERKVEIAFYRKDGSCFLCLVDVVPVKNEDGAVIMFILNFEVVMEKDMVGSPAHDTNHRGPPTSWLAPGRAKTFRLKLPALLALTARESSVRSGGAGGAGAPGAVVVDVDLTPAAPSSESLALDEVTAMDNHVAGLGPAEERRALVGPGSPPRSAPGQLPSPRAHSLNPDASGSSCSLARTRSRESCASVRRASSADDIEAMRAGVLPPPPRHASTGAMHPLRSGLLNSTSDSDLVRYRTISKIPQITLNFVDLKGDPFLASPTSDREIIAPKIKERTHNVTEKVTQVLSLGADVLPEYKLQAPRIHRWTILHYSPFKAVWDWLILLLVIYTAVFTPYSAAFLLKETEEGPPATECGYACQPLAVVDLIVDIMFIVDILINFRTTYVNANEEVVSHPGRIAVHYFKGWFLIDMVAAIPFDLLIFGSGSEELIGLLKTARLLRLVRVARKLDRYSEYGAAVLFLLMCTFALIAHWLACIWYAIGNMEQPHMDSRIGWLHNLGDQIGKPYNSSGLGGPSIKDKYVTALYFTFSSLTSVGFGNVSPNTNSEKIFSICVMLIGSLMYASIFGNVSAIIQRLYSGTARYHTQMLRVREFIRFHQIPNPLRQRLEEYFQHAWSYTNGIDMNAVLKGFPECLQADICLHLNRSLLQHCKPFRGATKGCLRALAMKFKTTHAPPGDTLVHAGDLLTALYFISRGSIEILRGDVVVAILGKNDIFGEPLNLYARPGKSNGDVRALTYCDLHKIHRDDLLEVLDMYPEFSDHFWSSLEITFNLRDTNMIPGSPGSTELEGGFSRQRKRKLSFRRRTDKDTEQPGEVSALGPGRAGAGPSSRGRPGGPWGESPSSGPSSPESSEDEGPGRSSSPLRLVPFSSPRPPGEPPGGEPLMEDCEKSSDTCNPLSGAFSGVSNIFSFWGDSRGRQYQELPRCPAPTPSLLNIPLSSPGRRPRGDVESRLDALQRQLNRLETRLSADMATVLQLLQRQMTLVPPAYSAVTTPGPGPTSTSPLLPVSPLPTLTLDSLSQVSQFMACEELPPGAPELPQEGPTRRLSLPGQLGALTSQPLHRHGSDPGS
`COc1ccc2c(CC(=O)Nc3ccc(OC)nc3)coc2c1`: the “hERG current change (%, negative = inhibition) at 1uM” value was 9.62%. Turning to `CC(C)C(=O)NN(C(=O)c1ccccc1)c1ccccc1`, the “hERG current change (%, negative = inhibition) at 1uM” value came out at 10.6%. For `CCCC(=O)Nc1ccccc1NC(=O)c1ccc(OC)cc1` the value was 10.5%; for `CCCc1nn(C)c(C(=O)Nc2ccccc2)c1Cl`, 8.22%.

With `CN1CCN(CCOCCOc2c(Cl)cc(Cl)cc2Cl)CC1.O=C(O)C(=O)O`, the “hERG current change (%, negative = inhibition) at 1uM” value is reported as 6.34%. For `Cc1cc(C)c(S(C)(=O)=O)c(Oc2cccc(Cl)c2)n1` the value was 10.2%; for `COc1ccc(-c2cc(C(=O)N3CCCC3)no2)cc1OC`, 3.94%. For `CCCCN(C)C(=O)c1nc2ccccn2c1CNCCCn1nnc2ccccc21` the value was 4.46%; for `CCNc1c(NS(=O)(=O)c2ccc(Cl)s2)c(=O)oc2ccccc12`, 7.19%. With `NC(=O)c1ccc(SCC(=O)NC2CCCCC2)c([N+](=O)[O-])c1`, the “hERG current change (%, negative = inhibition) at 1uM” value worked out at 10.4%. Turning to `CCOC(=O)c1c(C)n(-c2ccc(C)cc2)c2ccc(O)c(CN(C)C)c12.Cl`, the “hERG current change (%, negative = inhibition) at 1uM” value is listed as -23.2%. The figure for `CCOC(=O)C1=C(C)NC(=S)NC1c1ccc(OCC(=O)N2CCCCCC2)c(OC)c1` (stereo not shown) is 12.6%; for `CCOC(=O)c1nnc(-c2ccc(C)cc2)nc1Oc1ccccc1Cl` it is 6.33%. The figure for `Cc1ccnc(NC(=O)Nc2ccc(Br)cc2Cl)c1` is 9.54%; for `O=C1CN=C(c2ccc(Cl)cc2)c2oc3ccccc3c2N1` it is 12.8%. Take `O=C(COc1cccc([N+](=O)[O-])c1)N/N=C/c1ccco1`: the “hERG current change (%, negative = inhibition) at 1uM” value came out at 4.53%. For `C=CC(C)(O)CCCC(C)CCCC(C)CCCC(C)C` (stereo not shown) the value was 12.2%; for `CN(C)S(=O)(=O)N(CC(=O)Nc1ccc2ccccc2c1)c1ccccc1`, 11.2%; for `CCN(CC)c1ccc(C2C(C(=O)OC(C)C)C(=O)CC(C)(O)C2C(=O)OC(C)C)cc1` (stereo not shown), 13.2%. Take `COC(=O)c1sccc1NC(=O)Nc1cc(C)ccc1OC`: the “hERG current change (%, negative = inhibition) at 1uM” value was 9.54%. For `CNC(=O)NC1CCCCc2sccc21` (stereo not shown) the value was -5.59%. For `Cc1ccc(C(=O)N2N=C(c3cccc(NS(C)(=O)=O)c3)CC2c2cccs2)cc1` (stereo not shown) the value was 6.05%. For `Cc1ccc(Cn2c(N3CCNCC3)nc3c2c(=O)[nH]c(=O)n3C)cc1` the value was 14%; for `CCCCNC(=O)/C=C/c1ccc(OC)c(Br)c1`, 7.5%.

Turning to `OCCCn1c(C2CCCN2c2nc(-c3ccc(Cl)cc3)cs2)nc2cc(C(F)(F)F)ccc21` (stereo not shown), the “hERG current change (%, negative = inhibition) at 1uM” value was determined as 2.89%.

The values above are taken from paper PMC4336329 (PLoS ONE, 2015).
